Test results as given in US20180244796A1 (CARSGEN THERAPEUTICS, published 2018).

B1: chimeric antigen receptor P3F2-28Z on CTL cells (receptor)
chain: QMQLVQSGAEVKKPGASVKVSCKASGYTFTSYYMHWVRQAPGQGLEWMGIINPSGGSTSYAQKFQGRVTMTRDTSTSTVYMELSSLRSEDTAVYYCASSRSGTTVVNHDAFDIWGKGTTVTVSSGGGGSGGGGSGGGGSDIQLTQSPSSLSASVGDRVTITCRASQVISRALAWYQQTPGKPPKLLIYDASNLQSGVPSRFSGSGSGTDFTLTISRLQPEDFATYYCQQFNSYPLTFGGGTKLEIKRTTTPAPRPPTPAPTIASQPLSLRPEACRPAAGGAVHTRGLDFACDFWVLVVVGGVLACYSLLVTVAFIIFWVRSKRSRLLHSDYMNMTPRRPGPTRKHYQPYAPPRDFAAYRS[about 120 residues cut from this listing]
notes: Expressed on human CTL cells by lentivirus; also called scFv(MSLN)-CD28a-CD28b-CD3 zeta
B2: chimeric antigen receptor P3F2-28BBZ on CTL cells (receptor)
chain: QMQLVQSGAEVKKPGASVKVSCKASGYTFTSYYMHWVRQAPGQGLEWMGIINPSGGSTSYAQKFQGRVTMTRDTSTSTVYMELSSLRSEDTAVYYCASSRSGTTVVNHDAFDIWGKGTTVTVSSGGGGSGGGGSGGGGSDIQLTQSPSSLSASVGDRVTITCRASQVISRALAWYQQTPGKPPKLLIYDASNLQSGVPSRFSGSGSGTDFTLTISRLQPEDFATYYCQQFNSYPLTFGGGTKLEIKRTTTPAPRPPTPAPTIASQPLSLRPEACRPAAGGAVHTRGLDFACDFWVLVVVGGVLACYSLLVTVAFIIFWVRSKRSRLLHSDYMNMTPRRPGPTRKHYQPYAPPRDFAAYRSKRGRKKLLYIFKQPFMRPVQTTQEEDGCSCRFPEEEEGGCEL[about 120 residues cut from this listing]
notes: Expressed on human CTL cells by lentivirus; also called scFv(MSLN)-CD28a-CD28b-CD137-CD3 zeta
B3: chimeric antigen receptor P1A6E-Z on CTL cells (receptor)
chain: QVQLEQSGLGLVKPSQTLSLTCAISGDTVSSDSAAWNWIRQSPSRGLEWLGRTYYRSKWFNDYAVSVKGRITINSDTSKNQFSLQLNSVTPEDTAVYYCARSNSYYYYAMDVWGQGTLVTVSSGGGGSGGGGSGGGGSQAVLTQPSSLSASPGASASLTCTLRSGINVGIYRIYWYQQRPGSPPQILLTYKSDSDKYQGSGVPSRFSGSKDASANAGILLISGLQSEDEADYYCMIWHSGGWVFGGGTKVTVLGTTTPAPRPPTPAPTIASQPLSLRPEACRPAAGGAVHTRGLDFACDIYIWAPLAGTCGVLLLSLVIT[about 120 residues cut from this listing]
notes: Expressed on human CTL cells by lentivirus; also called scFv(MSLN)-CD8-CD3 zeta
B4: chimeric antigen receptor P1A6E-28BBZ on CTL cells (receptor)
chain: QVQLEQSGLGLVKPSQTLSLTCAISGDTVSSDSAAWNWIRQSPSRGLEWLGRTYYRSKWFNDYAVSVKGRITINSDTSKNQFSLQLNSVTPEDTAVYYCARSNSYYYYAMDVWGQGTLVTVSSGGGGSGGGGSGGGGSQAVLTQPSSLSASPGASASLTCTLRSGINVGIYRIYWYQQRPGSPPQILLTYKSDSDKYQGSGVPSRFSGSKDASANAGILLISGLQSEDEADYYCMIWHSGGWVFGGGTKVTVLGTTTPAPRPPTPAPTIASQPLSLRPEACRPAAGGAVHTRGLDFACDFWVLVVVGGVLACYSLLVTVAFIIFWVRSKRSRLLHSDYMNMTPRRPGPTRKHYQPYAPPRDFAAYRSKRGRKKLLYIFKQPFMRPVQTTQEEDGCSCRFPEEEEGGCEL[about 120 residues cut from this listing]
notes: as for B2
B5: chimeric antigen receptor P1A6E-28Z on CTL cells (receptor)
chain: QVQLEQSGLGLVKPSQTLSLTCAISGDTVSSDSAAWNWIRQSPSRGLEWLGRTYYRSKWFNDYAVSVKGRITINSDTSKNQFSLQLNSVTPEDTAVYYCARSNSYYYYAMDVWGQGTLVTVSSGGGGSGGGGSGGGGSQAVLTQPSSLSASPGASASLTCTLRSGINVGIYRIYWYQQRPGSPPQILLTYKSDSDKYQGSGVPSRFSGSKDASANAGILLISGLQSEDEADYYCMIWHSGGWVFGGGTKVTVLGTTTPAPRPPTPAPTIASQPLSLRPEACRPAAGGAVHTRGLDFACDFWVLVVVGGVLACYSLLVTVAFIIFWVRSKRSRLLHSDYMNMTPRRPGPTRKHYQPYAPPRDFAAYRS[about 120 residues cut from this listing]
notes: as for B1
B6: chimeric antigen receptor P3F2-Z on CTL cells (receptor)
chain: QMQLVQSGAEVKKPGASVKVSCKASGYTFTSYYMHWVRQAPGQGLEWMGIINPSGGSTSYAQKFQGRVTMTRDTSTSTVYMELSSLRSEDTAVYYCASSRSGTTVVNHDAFDIWGKGTTVTVSSGGGGSGGGGSGGGGSDIQLTQSPSSLSASVGDRVTITCRASQVISRALAWYQQTPGKPPKLLIYDASNLQSGVPSRFSGSGSGTDFTLTISRLQPEDFATYYCQQFNSYPLTFGGGTKLEIKRTTTPAPRPPTPAPTIASQPLSLRPEACRPAAGGAVHTRGLDFACDIYIWAPLAGTCGVLLLSLVIT[about 120 residues cut from this listing]
notes: as for B3

biological target: human mesothelin on PANC-1-MSLN cells (human, UniProt Q13421 296-598); assay: cell-based or functional assay

Binder	CYTOTOXICITY (%), effector target ratio 1:1, LDH release, 18 h [%]	CYTOTOXICITY (%), effector target ratio 1:3, LDH release, 18 h [%]	CYTOTOXICITY (%), effector target ratio 3:1, LDH release, 18 h [%]
B1	59.3	28.7	–
B2	62.9	30.7	85.6
B3	33.1	13.7	63
B4	63.8	32.5	95.3
B5	58.1	23.9	89.4
B6	29.9	15.7	58.4

biological target: T1, purified human mesothelin protein (recombinant, 6xHis tag) (human, UniProt Q13421 296-580); assay: flow cytometry; CAR T cells stained with biotinylated human mesothelin recombinant protein and PE-labeled streptavidin
T1 construct: also called hu-mesothelin; human mesothelin recombinant protein
Procedure: Infected CTL cells were detected by flow cytometry on day 8 of culture for the expression of different chimeric antigen receptors. Firstly, the infected CAR T cells were incubated with biotinylated human mesothelin recombinant protein for 1 h at 37° C., washed in D-PBS twice and then incubated with PE-labeled streptavidin for 40 min at 37° C. After washed with D-PBS for 3 times, the ratio of positive cells was determined by flow cytometry. Uninfected T lymphocytes was used as a negative control, the positive rates of virus-infected T cells expressing different chimeric antigen receptors are shown in Table 3.

Binder	Positive rate of CTL cells transfection [%]
B1	86
B2	77
B3	58
B4	69
B5	73
B6	68
